Experimental data: patent US5776901A, “Polypeptide analogues having growth hormone releasing activity” (Administrators of the Tulane Educational Fund, priority 1992, dated 1998)
Values after ≈ are worked out from the molar mass of the structure shown. Values joined by “and” are separate entries in the source; they are usually repeats but may differ in a detail not shown here. Equal entries are not always repeated. Not every detail of the peptide structures is certain; ends, links or a residue may be inferred. Where a SMILES comes first, the peptide text is derived from it. [ ]: non-standard residue; d: D form. d2Nal = N[C@H](Cc1ccc2ccccc2c1)C(=O)O

Columns and labels:
[1] = system: serum growth hormone (GH); experiment: In vivo GH release in rats after oral (intragastric) administration; parameters: species or system rat; conditions: Table 4, N = 6
[2] = system: serum growth hormone (GH); experiment: In vivo GH release in pentobarbital anesthetized rats, i.v. injection; parameters: species or system rat; conditions: sacrificed 10 min after injection, N = 6
[3] = system: histamine releasing activity; experiment: Rat cell histamine assay; type: cell-based; conditions: higher ED50 = less histamine release
growth hormone = experiment: Growth hormone releasing ability in humans; type: in vivo, human

For C[C@H](N)C(=O)N[C@@H](Cc1c[nH]cn1)C(=O)N[C@H](Cc1ccc2ccccc2c1)C(=O)N[C@@H](C)C(=O)N[C@@H](Cc1c[nH]c2ccccc12)C(=O)N[C@H](Cc1ccccc1)C(=O)N[C@@H](CCCCN)C(N)=O [Ala-His-DβNal-Ala-Trp-DPhe-Lys-NH2, reference compound] (H-AH[d2Nal]AW[dF]K-NH2), the “Serum GH” value ([1]; 10 mg/kg intragastric, 15') was 1421 ng/mL, the “Serum GH” value ([1]; 10 mg/kg intragastric, 20') was 1605 ng/mL and the “Serum GH” value ([1]; 10 mg/kg intragastric, 30') was 752 ng/mL. The “Serum GH” value ([1]; 10 mg/kg intragastric, time not marked (head: 15')) was 786 ng/mL, the “Serum GH” value ([1]; 30 mg/kg intragastric, time not marked (head: 15')) was 1914 ng/mL and the “GH Released Serum GH” value ([2]; Table 3, total dose 0.1 μg i.v., mean) was 610 ng/mL and 822 ng/mL. For the same molecule, the “GH Released Serum GH” value ([2]; Table 3, total dose 0.3 μg i.v., mean) was 1140 ng/mL and 1418 ng/mL and 1746 ng/mL and 1594 ng/mL, the “GH Released Serum GH” value ([2]; Table 3, total dose 1.0 μg i.v., mean) was 2909 ng/mL and 2201 ng/mL and 2610 ng/mL and 2180 ng/mL and the “GH Released Serum GH” value ([2]; Table 3, total dose 3.0 μg i.v., mean) was 3686 ng/mL. For the same molecule, the “GH Released Serum GH” value ([2]; Table 5, total dose 0.10 μg i.v.) was 894 ng/mL, the “GH Released Serum GH” value ([2]; Table 5, total dose 0.30 μg i.v.) was 1128 ng/mL and the “GH Released Serum GH” value ([2]; Table 5, total dose 1.00 μg i.v.) was 1362 ng/mL. For the same molecule, the “ED50 (the 50% effective dose) in a rat cell histamine assay” value [3] was 11.0 ± 1.0 µg/mL (≈ 11.5 µM) and the “growth hormone releasing ability in humans (comparison in words)” value (growth hormone) was “more effective than Ala-His-DTrp-Ala-Trp-Dhe-Lys-NH2”.
